Publication PMC11602027
No constants are given. Whether binding was seen depends on the method and setting. For part of these data: Binding seen in cells or lysates may run through a third protein. Some binding calls cover weakened binding; strength is not graded here. For part of these data: Sequences can lack the tags named with a protein. Each block holds one binder with its values, some of them ahead of it.

Key:
pGBK-rgf1 (S. pombe) = molecular target: T1, pGBK-rgf1 (S. pombe) (UniProt Q9Y7U6); test: two-hybrid; S. cerevisiae AH109; pGBKT7 (GAL4 binding domain) and pGADT7 (GAL4 activation domain) fusions; growth on YNB plates without histidine
T1 sequence: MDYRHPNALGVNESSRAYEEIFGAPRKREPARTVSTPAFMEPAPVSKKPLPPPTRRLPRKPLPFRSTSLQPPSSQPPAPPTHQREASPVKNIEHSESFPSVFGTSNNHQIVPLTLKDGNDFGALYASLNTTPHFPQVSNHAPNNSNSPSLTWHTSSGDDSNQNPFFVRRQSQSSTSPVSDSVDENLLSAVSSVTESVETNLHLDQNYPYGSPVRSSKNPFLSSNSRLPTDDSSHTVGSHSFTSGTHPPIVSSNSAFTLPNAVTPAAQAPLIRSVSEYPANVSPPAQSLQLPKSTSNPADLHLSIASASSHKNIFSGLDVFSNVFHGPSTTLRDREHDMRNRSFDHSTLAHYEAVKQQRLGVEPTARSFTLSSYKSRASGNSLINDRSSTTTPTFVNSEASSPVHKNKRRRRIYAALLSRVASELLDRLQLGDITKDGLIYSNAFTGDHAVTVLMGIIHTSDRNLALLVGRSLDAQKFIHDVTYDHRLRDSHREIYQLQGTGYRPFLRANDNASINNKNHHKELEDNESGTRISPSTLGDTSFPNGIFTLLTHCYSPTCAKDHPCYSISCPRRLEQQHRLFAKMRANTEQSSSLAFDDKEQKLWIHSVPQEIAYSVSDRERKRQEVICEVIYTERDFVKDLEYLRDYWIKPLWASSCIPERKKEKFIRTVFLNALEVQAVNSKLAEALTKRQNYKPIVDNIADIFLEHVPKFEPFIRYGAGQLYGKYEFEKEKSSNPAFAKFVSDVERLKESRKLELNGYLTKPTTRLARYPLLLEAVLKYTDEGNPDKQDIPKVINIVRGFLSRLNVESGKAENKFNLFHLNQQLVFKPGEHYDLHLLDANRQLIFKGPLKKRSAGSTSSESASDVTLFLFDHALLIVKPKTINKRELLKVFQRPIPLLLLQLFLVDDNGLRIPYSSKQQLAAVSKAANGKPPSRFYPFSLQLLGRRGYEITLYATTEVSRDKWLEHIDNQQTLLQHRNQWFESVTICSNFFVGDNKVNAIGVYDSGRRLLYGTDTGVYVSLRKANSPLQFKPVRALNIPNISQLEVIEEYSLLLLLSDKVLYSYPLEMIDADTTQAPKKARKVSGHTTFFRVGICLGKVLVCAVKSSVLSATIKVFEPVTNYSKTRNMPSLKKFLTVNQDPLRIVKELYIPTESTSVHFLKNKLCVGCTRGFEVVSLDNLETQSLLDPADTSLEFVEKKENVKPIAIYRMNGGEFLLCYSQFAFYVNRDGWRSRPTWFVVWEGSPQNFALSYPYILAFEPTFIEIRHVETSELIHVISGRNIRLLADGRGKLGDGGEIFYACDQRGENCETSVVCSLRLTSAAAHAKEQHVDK

GST-Rgf1 (S. pombe) = molecular target: T2, GST-Rgf1 (S. pombe) (UniProt Q9Y7U6); test: pull-down; 2 to 10 μg GST-tagged protein purified from E. coli and coupled to GS beads, incubated 2 h with S. pombe cell extracts (2 to 3 mg total protein; 50 mM Tris-HCl pH 7.5, 20 mM NaCl, 0.5% NP-40, 10% glycerol); blotted with anti-HA or anti-GFP; GS beads alone as control; only the target purified
T2 sequence: T1 sequence

- binding (pGBK-rgf1 (S. pombe)): no binding
B1: pGAD-tea1 (protein, UniProt P87061 1-1147)
chain: MSFLFKRNKGSAHKPTKPNFSKTSTTPSTSQLKHSHESNVKMSTSTVTEHRKKPTGSGSHITASPWSKLTVRGSSNVLPRYSHASHLYAEGGQEIYIFGGVASDSQPKNDLWVLNLATSQFTSLRSLGETPSPRLGHASILIGNAFIVFGGLTNHDVADRQDNSLYLLNTSSLVWQKANASGARPSGRYGHTISCLGSKICLFGGRLLDYYFNDLVCFDLNNLNTSDSRWELASVVNDPPPARAGHVAFTFSDKLYIFGGTDGANFFNDLWCYHPKQSAWSKVETFGVAPNPRAGHAASVVEGILYVFGGRASDGTFLNDLYAFRLSSKHWYKLSDLPFTPSPRSSHTLSCSGLTLVLIGGKQGKGASDSNVYMLDTSRFRLGSVPTTSGRQRNTSFFSNSTGNTNPSAFNGLLTSSRIPSYNGSKVRSTSHPSRQQYIGSSNSRFNTRHQTISTPVSGRASNDLPSPVVPTRSNSSSILQPSYNLNSHSSDRRNTNDDDQSSLNSQQLSNQAKAQGEVSPTLSFVPSSHSMEQGNGSVASANNAQSEAATRSINSISEVSEVRFPEQSSVKTVDERKSLDGRITSVTLETLVEKYSELSKQQIVEWFKSKLYEILRDSASKIDSLTEKLKVANAEKNAALCEAALEKVPLAKHNKLSDGTFSTPDKENVQSTNDAHIMQENFSLHKALEVMRETSSDLDKQLKDATASQKELIVQTSSFQKELVEERERHNAISKRLQEIESLYRDRELLVTNLEDQLVDQTVTINKFAFERDQFRERSMGFENTIKDLTRKMEATDMLNVSLHESLRSVQTENSELVTEMALLKAELVKKQAIIDANANIYDKLTADHTNYETVSADINQNLKETLDKLLNGSSDFKNNEIELLHDQIRITNAKLEKREKLINASKYIEDTLRSEIQEAAEKVSNLEFSNFNLKEENSNMQLQLMKALEQRNTGAKQLVNLRMQLSTATSELDMLKLKLRTTALALEESPDDYSDILSILRADMSPFHDLHKQCGVLIDTLNGVKRGFGIFEKKFTDYHKFLENISDKLKSEEDTSLETPIHENQSIQSDQIKEVGEVLSAIKSLSDSVMLLKNQIDDLAKEKLPLSSSDDEKVNIKEKTDFMKLLVKSGLSNPPAKEPVHDNEN

- binding (GST-Rgf1 (S. pombe)): binds
B2: GFP-tagged Tea4 (protein, UniProt O60132 1-821)
chain: MLHMNSASSADSMEIMESHFDPTQQNDSTIIESRYSPEEYLEQSFEIQRIISGENSEPQTVASQEISDSQEEDTTLTSSQFEDCGTEYNEVVEDDEFRSEDEDDFMDEEEEYALYEAELSSSPSIHEEVIDCNFVHAIRGFEATVEGQVDATKGDMMILLDDSNSYWWLVKMCKNLAIGYLPAEYIETPSERLARLNKYKNSETSNSQQSVTLPPLDIVEKTLEAPSPNFRIKRVTFTCSSNSSDDEMDSENDYEAMVNRTVAENGLEIEFSDSSDSSLSAEYRSESEDHVTDSPAYVDLTELEGGFNQFNSTSFQSTSPLGLEIVETEINGSSTTADSKNSHSPYSKFSSAYPDAENSNISKINISIAGNKELYGNATQSDPSLYSTWIANKHKTASSATVDSPLRRSLSVDAMQSNASFSSYSSTSNTDKSLRPSSYSAVSESSNFTHDVSRDNKEISLNAPKSIIVSQSDSFDTSNVTQDAPNDVEKEPISGQMPNNLSVQSLKQLEVYPIRHSVSIEMPSEKLLSPRLYSSSTPSSPTKGFQKDDEEDSENRKQADKVELSPSSLLRQMSLPVDSSSQSDAQCTTSSVYITAERKAFSQSSIDLSTLSNHHVNNEINRRSFAGGFTSLADELSEMRELLHESPAPLECNEEMVIPTPELDASSAIPSSSISHDEDLLPRKNTEESTSSSSFSSLITSPASLQYDENPFKQSVVAELNNNSSSVPFVDSAHASDIHAYDNDHVSTKNKEFNRRLREFILDPDSLSGLYWSVKSAGVRASRRVSRNIEGESVSSDLDDIFANVLKGLSDEMASLLNTNR

- binding (pGBK-rgf1 (S. pombe)): binds
B3: pGAD-tea4 (protein, UniProt O60132 1-821)
chain: B2 chain
